Measurements taken from article PMC4336329 (PLoS ONE, 2015).
In all, about 310,000 compounds went through this assay and about 2,200 (0.71%) showed an effect of 50% or more. The effect is printed as a negative number. The list shows a part of the results.

What follows are compounds tested against human ether-à-go-go-related gene (hERG) potassium channel (human, UniProt Q12809) (assay: primary screen, population patch clamp on CHO cells stably expressing hERG).
Chain of human ether-à-go-go-related gene (hERG) potassium channel (Q12809 whole entry, looked up): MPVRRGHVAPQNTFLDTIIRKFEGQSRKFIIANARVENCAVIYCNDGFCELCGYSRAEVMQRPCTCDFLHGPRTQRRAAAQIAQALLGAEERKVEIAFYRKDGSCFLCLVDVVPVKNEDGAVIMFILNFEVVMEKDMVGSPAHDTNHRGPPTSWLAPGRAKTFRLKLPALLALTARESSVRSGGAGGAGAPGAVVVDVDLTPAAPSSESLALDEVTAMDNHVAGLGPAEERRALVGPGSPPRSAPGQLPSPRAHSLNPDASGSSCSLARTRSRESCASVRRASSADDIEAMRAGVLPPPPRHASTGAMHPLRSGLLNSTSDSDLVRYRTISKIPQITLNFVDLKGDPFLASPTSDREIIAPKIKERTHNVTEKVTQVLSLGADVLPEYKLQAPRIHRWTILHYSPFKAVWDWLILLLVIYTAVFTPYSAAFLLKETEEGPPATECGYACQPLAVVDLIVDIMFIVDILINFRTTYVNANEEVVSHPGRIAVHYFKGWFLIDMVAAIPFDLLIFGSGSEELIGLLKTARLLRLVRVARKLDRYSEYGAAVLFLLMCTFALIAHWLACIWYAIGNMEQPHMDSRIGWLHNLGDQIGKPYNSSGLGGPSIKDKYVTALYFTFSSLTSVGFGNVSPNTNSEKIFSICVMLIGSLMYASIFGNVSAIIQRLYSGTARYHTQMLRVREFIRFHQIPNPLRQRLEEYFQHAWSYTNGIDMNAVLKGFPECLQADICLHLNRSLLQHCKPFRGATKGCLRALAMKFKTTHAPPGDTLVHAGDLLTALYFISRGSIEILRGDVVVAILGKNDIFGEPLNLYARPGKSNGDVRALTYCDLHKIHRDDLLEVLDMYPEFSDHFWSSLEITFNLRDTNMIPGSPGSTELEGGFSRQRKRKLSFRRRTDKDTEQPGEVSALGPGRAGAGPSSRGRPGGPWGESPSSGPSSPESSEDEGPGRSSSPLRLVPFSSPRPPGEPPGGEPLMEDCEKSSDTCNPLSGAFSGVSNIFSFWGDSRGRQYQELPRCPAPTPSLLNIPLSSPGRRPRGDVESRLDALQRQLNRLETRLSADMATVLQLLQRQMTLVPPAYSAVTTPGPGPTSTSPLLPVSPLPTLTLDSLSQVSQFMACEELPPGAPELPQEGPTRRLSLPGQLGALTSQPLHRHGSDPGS

Compared with CN(C)/C=C(\C#N)C(=O)c1cccnc1Oc1cccc(F)c1, CSc1ncccc1C(=O)OCC(=O)c1ccc(Br)s1 is higher in “hERG current change (%, negative = inhibition) at 1uM” value: 0.839% for the first, 1.26% for the second.

Compared with Cc1ccc(SCCNC(=O)CN(c2ccc3c(c2)OCO3)S(C)(=O)=O)cc1, CCSc1ccccc1C(=O)Nc1ccc2c(c1)OCO2 is higher in “hERG current change (%, negative = inhibition) at 1uM” value: -4.28% for the first, 17.9% for the second.

Going from O=C(c1cc2ccccc2cc1O)N1CCCC1 to O=C(c1ccc(NS(=O)(=O)c2cccc(C(F)(F)F)c2)cc1)N1CCCC1, the “hERG current change (%, negative = inhibition) at 1uM” value falls from 16.9% to -4.22%.

Going from CN(C)C1(CNC(=O)C2CCN(S(=O)(=O)c3ccccc3C(F)(F)F)CC2)CCCCC1 to Cc1ccc(NC(=O)[C@@H]2CCCN2S(=O)(=O)c2ccccc2C(F)(F)F)cc1S(=O)(=O)N1CCOCC1, the “hERG current change (%, negative = inhibition) at 1uM” value rises from -5.31% to 0.123%.

Compared with O=C(Cn1cnc2ccccc2c1=O)NCCC(=O)N1CCN(Cc2ccccc2)CC1, O=C(COC(=O)c1ccccc1C(=O)N1CCN(c2ccccc2)CC1)NCc1ccccc1 is lower in “hERG current change (%, negative = inhibition) at 1uM” value: 10.1% for the first, -3.52% for the second.

First: Cc1cc(=O)[nH]c(-c2ccc(C(F)(F)F)cc2)n1
Second: Cc1ccc(S(=O)(=O)N(C)Cc2cc3cc(C)ccc3[nH]c2=O)cc1
The “hERG current change (%, negative = inhibition) at 1uM” value of the first is lower: 2.88% for the first, 13.1% for the second.

First: Cc1c(NC(C)C)c(=O)n(-c2ccccc2)n1C.Cl
Second: COc1ccc(C2=NOC(C(=O)Nc3c(C)n(C)n(-c4ccccc4)c3=O)C2)cc1OC (stereo not drawn)
The “hERG current change (%, negative = inhibition) at 1uM” value of the first is lower: 9.52% for the first, 11.9% for the second.

Going from CC1CCN(C(=O)CSc2nc3[nH]ncc3c(=O)[nH]2)CC1 to Cc1nc(SCC(=O)NC2CCCC2)c2c(C)c(C)sc2n1, the “hERG current change (%, negative = inhibition) at 1uM” value falls from 16.3% to 11.1%.

First: Cc1ccc(/C=N/NC(=O)C2CCN(Cc3ccc(F)cc3Cl)CC2)o1
Second: CCc1ccc(C(=O)N/N=C/c2ccc(Cl)cc2Cl)nc1
The “hERG current change (%, negative = inhibition) at 1uM” value of the first is lower: -9.1% for the first, 5.58% for the second.

First: COCC(C)N=C1NN=C(c2c[nH]c3ccccc23)CS1 (stereo not drawn)
Second: Cc1ccc(OC(C)C(=O)N2CC(=O)Nc3ccccc32)cc1 (stereo not drawn)
The “hERG current change (%, negative = inhibition) at 1uM” value of the first is higher: 9.89% for the first, -41.6% for the second.

Compared with COc1cc(OC)c(C(=O)OCC(=O)N(Cc2ccccc2)C(C)(C)C)cc1OC, CCOC(=O)c1cc2c(OC)ccc(OC)c2n1CC(=O)c1ccccc1 is lower in “hERG current change (%, negative = inhibition) at 1uM” value: 14.5% for the first, 6.46% for the second.

Compared with CCN(CC)c1nc2c(c(=O)[nH]c(=O)n2C)n1CCOc1ccccc1, COCCn1c(SCCN2CCCCC2)nc2ccccc2c1=O is lower in “hERG current change (%, negative = inhibition) at 1uM” value: 21% for the first, -53.3% for the second.

Compared with Cc1cccc(C(=O)NNC(=O)C23CC4CC(CC(C4)C2)C3)c1O, Cl.c1ccc(COc2ccccc2CNC23CC4CC(CC(C4)C2)C3)cc1 is lower in “hERG current change (%, negative = inhibition) at 1uM” value: 17.4% for the first, -73.8% for the second.

First: COc1ccc(/C=C(\NC(=O)c2ccc([N+](=O)[O-])cc2)C(=O)NCCN2CCOCC2)cc1
Second: COc1ccc(C(=O)NCC(=O)N2CCN(c3ccccc3)CC2)cc1
The “hERG current change (%, negative = inhibition) at 1uM” value of the first is lower: -45.8% for the first, 3.59% for the second.

Going from CCN1c2ccccc2-c2nc3ccccc3n2C1c1cccnc1 (stereo not drawn) to Nc1nc2c(c(=O)[nH]1)C(c1ccccc1)C1=C(N2)c2ccccc2C1=O (stereo not drawn), the “hERG current change (%, negative = inhibition) at 1uM” value falls from 7.14% to 3.2%.

First: N#Cc1cccc(NC(=S)Nc2ccccc2)c1
Second: COc1ccc(NC(=S)Nc2cccc3cnccc23)cc1
The “hERG current change (%, negative = inhibition) at 1uM” value of the first is higher: 10% for the first, -1.61% for the second.

Going from CCN(CC)CCNC(=O)c1ccc(NC(=O)c2cccc(S(=O)(=O)[N-]c3ccc(C)cc3)c2)cc1.[K+] to O=C(NNC(=O)c1ccccc1O)c1ccc(S(=O)(=O)Nc2ccccc2)cc1, the “hERG current change (%, negative = inhibition) at 1uM” value rises from -3.75% to 8.89%.

Compared with CC(C)(C)C(=O)CN1C(=O)NC(C)(Cc2ccc3c(c2)OCO3)C1=O (stereo not drawn), Cc1cc(C(=O)NCc2cc(C(=O)O)oc2C)c(C)o1 is lower in “hERG current change (%, negative = inhibition) at 1uM” value: 6.6% for the first, 5.79% for the second.

First: COC(=O)c1cccc(Nc2ncnc3sccc23)c1
Second: CCCC(=O)Nc1nc2ccc(NC(=O)c3cccnc3)cc2s1
The “hERG current change (%, negative = inhibition) at 1uM” value of the first is higher: 2.8% for the first, 0.651% for the second.

First: COc1cc(C(=O)N/N=C/c2ccccn2)cc(OC)c1OC
Second: CCOc1cc(C(=O)NCCN2C(=O)S/C(=C\c3cccnc3)C2=O)cc(OCC)c1OCC
The “hERG current change (%, negative = inhibition) at 1uM” value of the first is lower: 11.2% for the first, 12.5% for the second.

Going from COc1cc(/C=C2/NC(=O)NC2=O)cc(Br)c1OCc1ccc(C(=O)O)cc1 to O=C1CN(C(=O)COC(=O)CNC(=O)c2ccc(Br)o2)c2ccccc2N1, the “hERG current change (%, negative = inhibition) at 1uM” value falls from 8.29% to 7.83%.

First: CC(C)(C)NC(=O)CN(c1cccc([N+](=O)[O-])c1)S(=O)(=O)c1ccccc1
Second: O=C(CN1CCN(S(=O)(=O)c2ccccc2)CC1)Nc1ccc(Cl)c([N+](=O)[O-])c1
The “hERG current change (%, negative = inhibition) at 1uM” value of the first is higher: 1.84% for the first, -25.2% for the second.

Compared with O=C(Cc1c(F)cccc1Cl)N1CCN(S(=O)(=O)c2cccs2)CC1, CC(=O)c1ccc(N2CCN(C(=O)c3ccco3)CC2)c(F)c1 is lower in “hERG current change (%, negative = inhibition) at 1uM” value: 11.2% for the first, 0.108% for the second.

First: NS(=O)(=O)c1ccc(NC(=O)CCC(=O)c2ccc(Cl)s2)cc1
Second: CCCC(=O)Nc1cccc(NC(=O)c2cccc([N+](=O)[O-])c2C)c1
The “hERG current change (%, negative = inhibition) at 1uM” value of the first is higher: 14.1% for the first, 3.23% for the second.

First: Cc1onc(-c2ccccc2Cl)c1C(=O)N1CCc2ccccc2C1
Second: Cc1noc(C)c1COc1ccccc1C(=O)N1CCN(c2cccc(Cl)c2)CC1
The “hERG current change (%, negative = inhibition) at 1uM” value of the first is lower: 6.07% for the first, 13% for the second.

First: O=C(COCC(=O)Nc1cccc(C(F)(F)F)c1)Nc1cccc(C(F)(F)F)c1
Second: O=C(COC(=O)c1ccccc1)Nc1ccc(Cl)cn1
The “hERG current change (%, negative = inhibition) at 1uM” value of the first is higher: 24.2% for the first, 12.3% for the second.

Going from Cc1ccc(C(=O)Nc2nnc(-c3ccncc3)s2)o1 to COc1ccc(C)cc1-n1c(-c2ccncc2)n[nH]c1=S, the “hERG current change (%, negative = inhibition) at 1uM” value falls from 9.36% to 7.3%.

Going from N#Cc1c(NC(=O)CN2CCN(S(=O)(=O)c3ccc4c(c3)OCCO4)CC2)sc2c1CCC2 to CCOc1ccccc1OCCCC(=O)Nc1ccc(Cl)c(S(=O)(=O)N2CCOCC2)c1, the “hERG current change (%, negative = inhibition) at 1uM” value falls from 7.35% to 7.17%.

First: CCOC(=O)CSc1nc(C)c2cccc(C)c2n1
Second: Cc1ccc2nc(SCC(=O)NCc3cccs3)[nH]c2c1
The “hERG current change (%, negative = inhibition) at 1uM” value of the first is higher: 10.9% for the first, 2.2% for the second.

Compared with O=C(C1CCCO1)N1CCN(C(=S)Nc2cccc(Cl)c2)CC1 (stereo not drawn), Cc1cccc(NC(=O)CN(CC2CCCO2)C(=O)c2oc3ccccc3c2C)c1C (stereo not drawn) is higher in “hERG current change (%, negative = inhibition) at 1uM” value: 2.65% for the first, 17% for the second.

First: Cc1cc(F)ccc1S(=O)(=O)Nc1ccccc1C(=O)NCc1ccccn1
Second: CCC(C)C(NC(=O)c1ccccc1NC(=O)c1ccccc1)C(=O)O (stereo not drawn)
The “hERG current change (%, negative = inhibition) at 1uM” value of the first is higher: 9.77% for the first, -6.6% for the second.

Compared with CCS(=O)(=O)C1=NSC2=NC(=O)/C(=C\c3ccc(OC(=O)c4ccco4)cc3)C(=N)N21, CCOc1ccc(NC(=O)C2CC(=O)OC2c2ccccc2)cc1 (stereo not drawn) is lower in “hERG current change (%, negative = inhibition) at 1uM” value: 15.8% for the first, 6.84% for the second.

Compared with Clc1ccc(Cn2ncc3c(N4CCCCC4)ncnc32)cc1, Cc1c(C#N)sc2nc(-c3ccccc3)nc(N3CCCC3)c12 is higher in “hERG current change (%, negative = inhibition) at 1uM” value: -4.22% for the first, 14% for the second.

Compared with O=C(CSc1nnnn1C1CCCCC1)NCc1ccccc1, CN(C)C(CNC(=O)c1ccc(Cl)c(S(=O)(=O)N2CCCCCC2)c1)c1ccccc1 (stereo not drawn) is lower in “hERG current change (%, negative = inhibition) at 1uM” value: 11.7% for the first, -27.8% for the second.

Going from Cc1csc(=O)n1CC(=O)OCC(=O)NC(C)c1ccc(F)cc1 (stereo not drawn) to CCOC(=O)Cc1cnc(NC(=O)Cn2nnc(-c3ccc(OCC)cc3)n2)s1, the “hERG current change (%, negative = inhibition) at 1uM” value rises from 1.63% to 9.21%.

First: O=C(CSCc1ccc(Cl)cc1Cl)Nc1ccc(O)cc1C(=O)O
Second: CCOC(=O)C1=C(COC(=O)Cc2c(F)cccc2Cl)NC(=O)NC1C (stereo not drawn)
The “hERG current change (%, negative = inhibition) at 1uM” value of the first is higher: 14.7% for the first, 2.93% for the second.

Going from Cc1cc(C)cc(NC(=S)NC2CC3CCCC(C2)N3CC(C)C)c1 (stereo not drawn) to CCN1C(=C(C#N)C#N)C=Cc2cc(C)ccc21, the “hERG current change (%, negative = inhibition) at 1uM” value rises from 11.3% to 14.9%.

Compared with COc1cccc(Nc2c(F)c(OC)c(F)c(F)c2C(=O)O)c1, COc1ccc(OC)c(S(=O)(=O)N2CCc3ccccc32)c1 is lower in “hERG current change (%, negative = inhibition) at 1uM” value: 11.9% for the first, 10.7% for the second.

Compared with Cn1c(=O)c2c(SCC(=O)Nc3ccccc3F)nc(-c3ccccc3F)nc2n(C)c1=O, COc1ccc(NC(=O)c2cccc3c2C(=O)c2ccc(-c4cnc(OC)nc4)cc2S3(=O)=O)cc1 is higher in “hERG current change (%, negative = inhibition) at 1uM” value: 11.5% for the first, 14.5% for the second.

Going from COc1ccc(CNCC(O)(c2ccc(F)cc2)c2ccc(F)cc2)cc1OC to CN(C[C@H](Cc1ccccc1)N(C[C@H](c1ccccc1)N(CCc1ccccc1)N=O)N=O)N=O.[Na+], the “hERG current change (%, negative = inhibition) at 1uM” value rises from -30.4% to 6.14%.

Going from Cc1sc2ncn(CC(=O)NCCCC(=O)N3CCN(c4ncccn4)CC3)c(=O)c2c1C to Cn1c2ccc(F)cc2c2ncn(CCN3CCOCC3)c(=O)c21, the “hERG current change (%, negative = inhibition) at 1uM” value falls from 18.5% to -6.05%.

Going from O=C(COC(=O)/C=C/c1cccc([N+](=O)[O-])c1)NCc1ccco1 to CCCCn1c(=O)c(CCC(=O)OCC(=O)NC(=O)NCCC(C)C)nc2ccccc21, the “hERG current change (%, negative = inhibition) at 1uM” value falls from 13.8% to 2.09%.

Going from Brc1ccc([C@H]2CN3CCSC3=N2)cc1.O=C(O)C(=O)O to O=C(O)CC1Sc2ccccc2NC1=O (stereo not drawn), the “hERG current change (%, negative = inhibition) at 1uM” value falls from 3.28% to -12%.

For CCOC(=O)C1(CCOc2ccccc2)CCN(C(=O)CCSC)CC1, the “hERG current change (%, negative = inhibition) at 1uM” value was -11.3%.
